# Source: article PMC4336329 (PLoS ONE, 2015)
# The campaign covered roughly 310,000 compounds. About 2,200 (0.71%) showed an effect of 50% or more. Effects have a minus sign here. The list shows a part of the results.
# Target: human ether-à-go-go-related gene (hERG) potassium channel (human, UniProt Q12809)
# Assay: primary screen, population patch clamp on CHO cells stably expressing hERG
# Sequence of human ether-à-go-go-related gene (hERG) potassium channel (Q12809 whole entry, looked up): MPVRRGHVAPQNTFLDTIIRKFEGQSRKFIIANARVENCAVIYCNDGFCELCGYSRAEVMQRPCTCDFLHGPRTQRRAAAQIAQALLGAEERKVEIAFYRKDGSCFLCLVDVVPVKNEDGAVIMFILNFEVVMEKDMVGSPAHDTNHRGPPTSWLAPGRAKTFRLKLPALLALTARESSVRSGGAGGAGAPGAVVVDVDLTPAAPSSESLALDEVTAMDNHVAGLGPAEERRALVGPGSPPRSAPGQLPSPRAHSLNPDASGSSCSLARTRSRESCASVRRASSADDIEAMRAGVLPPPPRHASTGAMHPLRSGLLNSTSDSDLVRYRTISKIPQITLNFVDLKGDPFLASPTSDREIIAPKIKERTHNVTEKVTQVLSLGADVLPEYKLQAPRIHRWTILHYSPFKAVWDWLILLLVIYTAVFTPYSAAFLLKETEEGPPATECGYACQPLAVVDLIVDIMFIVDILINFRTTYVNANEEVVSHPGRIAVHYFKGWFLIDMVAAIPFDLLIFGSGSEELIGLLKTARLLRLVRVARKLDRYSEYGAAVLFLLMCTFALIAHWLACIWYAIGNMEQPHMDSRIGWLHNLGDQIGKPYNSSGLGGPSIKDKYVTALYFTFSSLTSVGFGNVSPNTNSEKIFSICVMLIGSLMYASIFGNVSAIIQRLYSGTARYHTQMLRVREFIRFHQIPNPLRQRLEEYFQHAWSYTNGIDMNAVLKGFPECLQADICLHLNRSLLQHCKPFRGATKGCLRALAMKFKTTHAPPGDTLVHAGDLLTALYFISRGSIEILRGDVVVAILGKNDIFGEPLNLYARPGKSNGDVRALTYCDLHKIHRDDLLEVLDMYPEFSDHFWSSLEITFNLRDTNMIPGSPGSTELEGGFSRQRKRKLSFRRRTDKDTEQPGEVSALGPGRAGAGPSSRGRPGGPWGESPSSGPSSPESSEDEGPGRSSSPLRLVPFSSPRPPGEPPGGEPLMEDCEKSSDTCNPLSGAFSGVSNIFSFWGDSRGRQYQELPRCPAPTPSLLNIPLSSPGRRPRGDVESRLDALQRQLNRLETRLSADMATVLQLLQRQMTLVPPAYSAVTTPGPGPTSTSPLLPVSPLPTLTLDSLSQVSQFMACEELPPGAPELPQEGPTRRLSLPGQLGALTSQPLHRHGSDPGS
row,SMILES,"hERG current change (%, negative = inhibition) at 1uM [%]"
1,Cn1cc([N+](=O)[O-])c(C(=O)Nc2ccc(Br)cn2)n1,-0.698
2,O=C(COCC(=O)NCc1ccccc1)NCc1ccccc1,0.482
3,NC(=S)N=Nc1c(O)n(CCCl)c2ccc(Br)cc12,-40.4
4,CCCNC(=O)NC(=O)CSc1nc(C)cs1,9.84
5,Cc1cccc(CN2C(=O)/C(=C\c3ccc(C(=O)NCCN4CCOCC4)cc3)Sc3ccccc32)c1,10.6
6,CC(OC(=O)Cn1c(C(F)(F)F)nc2ccccc21)C(N)=O (stereo not shown),18.4
7,Cc1ccc(NC(=O)COC(=O)c2cc(Cl)ccc2Cl)c(Br)c1,11.5
8,CCOc1cc(NC(=O)c2ccccn2)c(OCC)cc1NC(=O)c1ccc(Cl)cc1,17.8
9,COc1cc(C(C)=O)ccc1OC(=O)c1cc2cccc(OC)c2oc1=O,7.6
10,CCOC(=O)Cc1csc(NC(=O)CSc2ccc(Br)cc2)n1,10.5
11,CNC(=O)c1cc2cc(OC)ccc2oc1=N,10.9
12,CCc1cccc(NC(=O)C2CCN(S(=O)(=O)c3cccs3)CC2)c1,12.4
13,Cc1ccc(C(=O)NCC(=O)NNC(=O)CN(C)S(=O)(=O)c2ccc(Cl)cc2)s1,2.5
14,Cc1cccc(CSc2nc3c(c(=O)[nH]2)CCC3)c1,-8.39
15,COc1ccc(S(=O)(=O)Cc2ccc(C(=O)NCC(OC)OC)o2)cc1,16.5
16,CCCc1sc(N)nc1-c1ccc(Cl)cc1,18.4
17,Cc1ccccc1Cc1c(C)nc2c(C(=O)NCc3ccc4c(c3)OCO4)cnn2c1C,-3.77
18,COC(=O)C1=NN(c2cccc(C)c2)C2C(=O)N(c3ccccc3OC)C(=O)C12 (stereo not shown),7.06
19,CC(C)Cn1cnc2c(=O)oc3ccccc3c21,1.73
20,[O-]c1ccccc1-[n+]1c(-c2ccccc2)cc(-c2ccccc2)cc1-c1ccccc1,-7.12
21,O=C(COc1ccccc1Cl)c1ccc[nH]1,10.3
22,O=C(CC1C(=O)N(c2ccc(Cl)cc2)C(=S)N1CCc1ccncc1)Nc1ccc(F)cc1 (stereo not shown),6.64

row,SMILES,"hERG current change (%, negative = inhibition) at 1uM [%]"
1,Cc1cc(-c2nn(-c3ccccc3F)cc2CN2CCCC(CO)C2)c(C)s1 (stereo not shown),5.13
2,O=C(NCC(c1cccnc1)N1CCN(c2ccccc2)CC1)c1ccc2c(c1)OCO2 (stereo not shown),-0.194
3,O=C(NNC(=O)c1ccccc1Cl)c1ccc(-n2cncn2)c([N+](=O)[O-])c1,2.34
4,C=CCn1c(SCC(=O)NC(=O)NC)nnc1C1CCCCC1,9.82
5,Cc1cc(CN(C)C)c(O)c(C2(C)CCCCC2)c1,10.5
6,CC(Sc1ccc(S(=O)(=O)N(C)C)cn1)C(=O)NC1CCCC1 (stereo not shown),4.75
7,Cc1ccc(C#CC[N+]2(C)CCCCC2)cc1.[Br-],14.2
8,COc1ccc(S(=O)(=O)N2CCCCCC2)cc1C(=O)N(C)CC(=O)Nc1ccc(F)cc1,4.43
9,CN(CCCNC(=O)C1CCN(S(=O)(=O)N2CCC3(CC2)OCCO3)CC1)Cc1ccccc1,12.6
10,CCN(CC)C(=O)Cn1cc(C(=O)C(=O)NCCCN2CCOCC2)c2ccccc21,7.79
11,CC(C)n1c(O)c(N=NC(=O)c2ccccc2NS(=O)(=O)c2cccs2)c2ccccc21,3.74
12,Cc1cc(C)n(-c2nc3c(c(=O)[nH]c(=O)n3C)n2C)n1,5.33
13,COc1ccc(CC(=O)N2CCN(c3ccccn3)CC2)cc1,15.2
14,Cn1nccc1C(=O)N1CCCC(C(=O)c2cccc3ccccc23)C1 (stereo not shown),10.1
15,COc1ccc(NC(=O)CSc2nnc(C3CCCCC3)n2N)cc1,13.2
16,COc1ccc2cc(-c3[nH]ncc3CN3CCCN(c4ccccc4)CC3)ccc2c1,5.8
17,CC(=O)c1cccc(NC(=O)C2CCCN(S(=O)(=O)c3ccc(F)cc3)C2)c1 (stereo not shown),8.41
18,N#Cc1ccccc1CSc1nnc(-c2ccncc2)o1,7.24
19,COCCOC(=O)C1=C(C)NC2=C(C(=O)CCC2)C1c1cc2c(cc1Br)OCO2 (stereo not shown),0.113
20,Cc1ccc(C(=O)OCC(=O)Nc2sc3c(c2C#N)CCCCC3)cc1NC(=O)c1ccco1,-2.73
21,Cc1c(NC(=O)C(C)OC(=O)c2ncc(Cl)c(Cl)c2Cl)c(=O)n(-c2ccccc2)n1C (stereo not shown),13.1
22,Cc1ccc(S(=O)(=O)N(C)C)cc1NC(=O)c1cc(=O)c2ccccc2o1,11.5

row,SMILES,"hERG current change (%, negative = inhibition) at 1uM [%]"
1,Cc1ccc([N+](=O)[O-])c(OCCN2CCC(Cc3ccccc3)CC2)c1.O=C(O)C(=O)O,-25.9
2,CCOCCCNC(=O)C1CCC(CNS(=O)(=O)c2cccc3nsnc23)CC1 (stereo not shown),-7.94
3,COC(=O)Cn1c(=O)c2c(nc3n2CC(C)CN3Cc2ccccc2)n(C)c1=O (stereo not shown),-0.484
4,CC(C)N(C(=O)COC(=O)c1ccc(Cl)s1)c1ccccc1,-2.67
5,CN(C/C=C/c1ccccc1)C1CCCCC1,-1.67
6,O=C(O)c1oc2ccccc2c1-n1cccc1,20.9
7,COc1ccccc1-n1c(C)nc2cc(C(=O)O)ccc21,11.4
8,CN(C)S(=O)(=O)c1ccc(N2CCCC2)c(C(=O)Nc2nc3ccc(F)cc3s2)c1,2.58
9,FC(F)(F)c1ccc2nnc(-c3c(Cl)cccc3Cl)n2c1,1.13
10,Cc1noc(C)c1COc1ccccc1C(=O)N(C)CC(=O)Nc1ccc(F)cc1,-0.158
11,CC(C)(C)c1ccccc1OCCCCN1CCCC1,0.721
12,Cc1cc(C)n2nc(SCC(=O)N(C)c3c(N)n(Cc4ccccc4)c(=O)[nH]c3=O)nc2n1,10.6
13,COc1ccc(N2CCN(C(=O)c3ccc(S(=O)(=O)NCc4ccco4)cc3)CC2)cc1,-19
14,Nc1c(Cl)cc(-c2csc(N3CCCC3c3nc4cc(Cl)c(Cl)cc4n3CCOCCO)n2)cc1Cl (stereo not shown),8.36
15,O=C(NCc1ccccc1)NC(=O)c1ccncc1,7.72
16,COc1ccccc1CSc1nc2ccccc2[nH]1,1.15
17,COC(=O)C(C)Sc1nc2c(cnn2-c2ccc(F)cc2)c(=O)[nH]1 (stereo not shown),8.58
18,Nc1nc(C2CCOCC2)cs1,10.5
19,CC(=O)Nc1ccc(S(=O)(=O)N(Cc2ccco2)Cc2cc3ccccc3[nH]c2=O)cc1,13.2
20,Cc1nc2ccc(NC(=O)N3CCCCC3)cc2s1,-3.66
21,O=C(COC(=O)c1cc(Br)ccc1O)NCC1CCCO1 (stereo not shown),1.61
22,COc1ccc(CCC(=O)NC(C)C2CCCO2)cc1 (stereo not shown),16.6

row,SMILES,"hERG current change (%, negative = inhibition) at 1uM [%]"
1,Cc1cc(C)cc(NC(=O)CCn2c(=O)c3cccn3c3ccccc32)c1,4.83
2,CC(NC(=O)c1ccco1)C(c1cccs1)N1CCOCC1 (stereo not shown),11.1
3,Cc1cc(C)n(C2CCCCC2OC(=O)c2ccccc2)n1 (stereo not shown),14
4,Cc1nn(CC(=O)NCCN2CCCCC2C)c(=O)c2cc(-c3ccccc3)nn12 (stereo not shown),-10.2
5,N#C/C(=C(/O)COC(=O)c1ccccc1O)c1nc2ccccc2s1,14.2
6,Cc1c(N=Cc2ccc(O)c(Br)c2)cccc1[N+](=O)[O-],9.75
7,Cc1cc(C(F)F)n2nc(C(=O)Nc3sc4c(c3C(N)=O)CCC4)nc2n1,-1.34
8,CC(NC(=O)CSc1nc2ccc(N)cc2s1)c1ccccc1 (stereo not shown),17.5
9,Cc1nc2ccccc2n1CCN1CCOCC1.Cl,15.6
10,CCOc1ccc(N=Nc2ccc(O)c3ncccc23)cc1,13.6
11,O=C(COCc1cc(-c2ccc3c(c2)OCO3)on1)N1CCN(c2ccc(F)cc2)CC1,5.28
12,O=C1OCC/C1=C\c1ccccc1,9.22
13,O=C(Nc1ccccc1Cl)ON=C1c2ccccc2-c2ccccc21,7.36
14,Cc1c(NC(=O)C(C)n2cc([N+](=O)[O-])cn2)c(=O)n(-c2ccccc2)n1C (stereo not shown),9.47
15,COc1ccc(C(=O)Nc2ccc(S(=O)(=O)N3CCOCC3)cc2)cc1,10.1
16,O=C(c1[nH]ncc1[N+](=O)[O-])N1CCOCC1,-0.96
17,Cc1cccc(OCC(=O)Nc2ccc3c(c2)nc2n3CCOC2)c1,-16
18,O=C(Cn1c(=O)oc2ccccc21)NCc1ccco1,14.5
19,CC(/C=C1\SC(=S)N(NS(=O)(=O)c2ccc(C)cc2)C1=O)=C\c1ccccc1,9.06
20,COc1ccc(N(CC(O)Cn2cnc3ccccc32)S(=O)(=O)c2ccc(C)cc2)cc1 (stereo not shown),3.3
21,Cc1cc(C)cc(NC(=O)[C@H](NC(=O)[C@@H]2Cc3ccccc3CN2)c2ccccc2)c1,13.2
22,Cc1cc(SC(C)C(=O)Nc2c(C)n(C)n(-c3ccccc3)c2=O)nc2ccccc12 (stereo not shown),1.58
